# Test results as given in the supplement of paper PMC3334620.
# Over roughly 33,000 sequences, “E-score (-0.5 to 0.5)” has its median near -0.016; the highest 2% begin near 0.32. The list shows a part of the results.
# Target: T1, Stp1 (UniProt B3LFK1)
# T1 sequence: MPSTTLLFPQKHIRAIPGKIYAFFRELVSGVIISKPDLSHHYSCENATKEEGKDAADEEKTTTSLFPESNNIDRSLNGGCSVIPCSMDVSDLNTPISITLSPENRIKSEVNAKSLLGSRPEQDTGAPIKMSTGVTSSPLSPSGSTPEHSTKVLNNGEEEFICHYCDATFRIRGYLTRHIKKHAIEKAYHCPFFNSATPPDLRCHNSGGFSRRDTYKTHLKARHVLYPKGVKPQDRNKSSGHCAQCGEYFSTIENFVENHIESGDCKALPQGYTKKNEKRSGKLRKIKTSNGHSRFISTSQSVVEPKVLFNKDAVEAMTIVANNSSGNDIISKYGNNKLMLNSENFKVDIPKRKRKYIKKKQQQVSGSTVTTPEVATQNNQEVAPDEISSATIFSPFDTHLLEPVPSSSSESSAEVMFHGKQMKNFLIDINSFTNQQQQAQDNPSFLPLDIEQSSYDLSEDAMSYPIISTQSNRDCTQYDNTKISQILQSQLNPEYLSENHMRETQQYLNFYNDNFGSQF
# Assay: PBM E-score (8-mer binding enrichment) (E-score (-0.5 to 0.5)); higher = stronger / more preferred TF binding; most listed sequences are background and not binding sites
# Details: protein concentration: 200 nM; construct: GST-full length
# Method in brief: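 Using PURExpress in vitro transcription/translation, GST-tagged yeast transcription factors were made in full-length or DNA-binding-domain form. These were applied at about 100-200 nM to double-stranded universal all-10-mer Agilent arrays, and bound protein was detected with fluorescent anti-GST. Scans were normalised with masliner before the Universal PBM Analysis Suite assigned E-scores to ungapped eight-base words pooled with their reverse complements.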
row,Sequence,PBM E-score
1,CTCTGTAC,0.00392
2,ATCAGAAT,0.0562
3,ACGCACCC,-0.306
4,CTTCATGA,0.138
5,ATATGACC,-0.104
6,CAGCATGG,-0.0284
7,CAGCGAGC,-0.0649
8,ATAGGAAT,0.0422
9,AGGCAGGG,-0.123
10,AGGAGAGG,-0.249
11,GAAGCCCC,-0.232
12,GAAATACC,0.0295
13,GATCCCAA,-0.0973
14,CGACCTGA,-0.116
15,AAATTCTC,-0.158
16,GCATGGGA,-0.227
17,AAATACCT,0.00333
18,CCTATTGC,0.013
19,AATCAGCG,0.012
20,AACGCCGT,0.482
21,GCTGTATA,0.00031
22,ACACTGGA,-0.0529
23,ACCCTCGG,-0.327
24,CATACTGA,0.169
25,CATTTGTC,-0.0111

row,Sequence,PBM E-score
1,GTAGAGGA,-0.27
2,GCCAGAGA,-0.14
3,CATGAGGG,-0.212
4,ACTAACTG,-0.00385
5,GACATACA,0.125
6,AACGTCTA,0.0398
7,CCATAACG,0.0339
8,GAGCCTGA,-0.0639
9,GGAAAATA,0.167
10,AAGGAGGA,-0.179
11,GAAGGTTA,0.00224
12,CCCTTGAG,-0.2
13,GCCACTGA,-0.0755
14,ATAACTTC,-0.0104
15,CGGAACCC,-0.0613
16,GAGCTTGA,-0.168
17,AGACTAAG,-0.106
18,ATTTCACG,0.0123
19,AGAGAAGG,-0.122
20,ATTGAATC,0.0935
21,GCCTGGAC,-0.223
22,AAGGTTTC,-0.0962
23,ACTTATCC,-0.0589
24,AGTTGAGG,-0.0375
25,ACCTGCTA,-0.158

row,Sequence,PBM E-score
1,TCGTGGCA,0.102
2,CGACTTCC,-0.248
3,GCGCTTAA,0.0391
4,CGGCAGCA,0.333
5,CGCTAGAA,-0.0475
6,ATGGCGGG,-0.132
7,AAATACTC,0.0143
8,GCGTCTAA,0.0127
9,AGGTCGCG,-0.058
10,ACCTACCA,-0.189
11,CGAGAGGC,0.0572
12,CGCAGCTC,-0.122
13,ATGGGCGA,-0.153
14,ACTATGAA,-0.0377
15,AGACAAGG,-0.00804
16,ATGGCAGG,0.012
17,GTCCGCAA,0.0743
18,GGAGTCAC,-0.236
19,GCCTTTCA,0.194
20,GACAGACC,-0.14
21,CAATTCCG,0.107
22,AGATGCAA,-0.0126
23,AACAGCAG,-0.0119
24,AACAGACA,0.0548
25,AATGCAGG,-0.0721

row,Sequence,PBM E-score
1,ACATAAGA,0.145
2,ATTGTCGA,-0.0508
3,CACATGTC,-0.114
4,ACACCTTA,0.0262
5,ATGCGCTC,-0.0506
6,TGATTCCA,-0.0134
7,ATCACGAC,-0.218
8,AACAATAG,-0.168
9,CTGATCAG,0.0499
10,CGTATCAA,0.226
11,GCACTTGA,0.18
12,AGATTCTC,0.00184
13,TAGCCCGA,-0.00407
14,CCGATGAA,-0.0605
15,CTTTTTTC,-0.0574
16,GCCGGCGC,0.346
17,CTGGTTCC,-0.045
18,AGTGTACC,-0.316
19,AGGTTGGC,-0.228
20,GTGGCACA,0.125
21,ACTACGAT,0.0409
22,AGTGCGCA,0.0101
23,CAGGAGCC,-0.0638
24,ATGCGCCG,0.413
25,ACCAGAGT,-0.125

row,Sequence,PBM E-score
1,GCGCCAAC,0.259
2,ATTAAAAC,0.261
3,CGCGGGAG,-0.121
4,TCTTCTCA,0.0549
5,TACTGCCA,-0.0491
6,CCCGAAGC,-0.239
7,GACCCAGA,-0.0311
8,CACTTATG,0.0482
9,GATCCTGC,-0.0764
10,AGAGTCCT,-0.269
11,CCACATGC,0.132
12,GAGTTCAA,-0.0434
13,ATTACACA,0.215
14,ATTGGTGA,-0.0777
15,CGTGGTGC,-0.139
16,GGATGAGA,-0.157
17,AAGATCCC,-0.148
18,AGGCGATC,0.128
19,ACCGCGAT,0.0376
20,GTCATTTA,-0.0447
21,CATGGTGC,0.105
22,AGGAATCG,0.0328
23,CCGAGCGG,0.0338
24,AGCCTCAG,-0.0107
25,CTGAATCC,0.0478

row,Sequence,PBM E-score
1,GGGCGGCA,0.356
2,CGGTTTGC,-0.106
3,AAAGATTG,-0.142
4,ACTTAGGG,-0.194
5,ATTCTGAA,0.123
6,CGGTTTGA,0.00878
7,ATCACACG,0.291
8,AGGGTTTG,-0.117
9,CACCGCGC,0.166
10,AAGTTTAG,0.0383
11,ACACAGCA,0.0745
12,TAAATAGA,-0.0606
13,AGCGACTG,-0.0206
14,AAGACTGC,-0.127
15,GCGGCCGA,0.139
16,CATCGTCC,-0.046
17,CAGGAGCA,-0.125
18,AGGACAGG,-0.181
19,AAAGGTTG,-0.251
20,CCTGACGC,-0.118
21,CAAAAATG,0.167
22,AGAACTTC,-0.0546
23,GCTAGGCC,0.0402
24,AACTATGG,-0.0973
25,AGTATTAT,-0.051

row,Sequence,PBM E-score
1,GAAGATAC,-0.111
2,TAATGTCA,-0.164
3,CCCACCCA,-0.0405
4,AACTAGGA,-0.0432
5,CTATTTGA,0.177
6,AGATTGTC,0.0173
7,GGAGTCAA,-0.268
8,GGCGAATA,0.0901
9,GCACTAAA,0.204
10,ACTGGACG,-0.112
11,CAGCTGGA,0.148
12,GTTAACGA,-0.125
13,ACCAGAGA,-0.117
14,CTTTACAA,0.0348
15,CTTCTTGA,-0.0804
16,CTATCACC,-0.189
17,AGACGCTC,-0.255
18,AGATCCCA,-0.193
19,CCGACCCC,-0.296
20,AAGGCTCC,0.0473
21,AACGAACG,0.11
22,CTTGTCTA,0.0651
